Source: patent US11000038B2, “Pyridone compounds and agricultural and horticultural fungicides containing the same as active ingredients” (priority 2017, dated 2021)

How the values were obtained:
[1] = system: barley powdery mildew fungi (Blumeria graminis f. sp. hordei); assay: Test Example D: barley powdery mildew, spray treatment of barley plants; conditions: spray treatment of barley plants; control value=100{1-(n/3)}
[2] = system: wheat brown rust fungi (Puccinia recondita); assay: Test Example E: wheat brown rust, spray treatment of wheat plants; type: in vivo; conditions: spray treatment of wheat plants; control value=100{1-(n/3)}
[3] = system: grape downy mildew fungus (Plasmopara viticola); assay: Test Example G: grape downy mildew, spray treatment of grape plants; conditions: 250 ppm spray, 2.5 ml/pot, grape Neomuscat; 7 to 10 days from inoculation
[4] = system: cabbage Alternaria sooty spot fungi (Alternaia brassicicola); assay: Test Example C: cabbage Alternaria sooty spot, spray treatment of cabbage plants; type: in vivo; conditions: spray treatment of cabbage plants; control value=100{1-(n/3)}
From the text: [Test Example C] Cabbage Alternaria Sooty Spot
Test plants (cabbage variety: Shikidori) were cultivated until the cotyledons extended after the sowing of seeds.
<Control Value> Control value=100{1−(n/3)}

[5] = system: gray mold fungi (Botrytis cinerea); assay: Test Example B: tomato gray mold, spray treatment of tomato plants; conditions: spray treatment of tomato plants; control value=100{1-(n/3)}

| SMILES | Test D control value class (barley powdery mildew) [1] | Test E control value class (wheat brown rust) [2] | Test G control value class (grape downy mildew) [3] | Test C control value class (cabbage Alternaria sooty spot) [4] | Test B control value class (tomato gray mold) [5] |
| --- | --- | --- | --- | --- | --- |
| O=c1c(Cl)cn(CCCC(F)(F)F)c(-c2c(F)cc(F)cc2F)c1Br [Compound 70] | L (L shows the control value of 50% or less) | H (H shows the control value of more than 50%) | L (L shows the control value of 50% or less) | H (H shows the control value of more than 50%) | L (L shows the control value of 50% or less) |
| O=c1c(Br)cn(CCCC(F)(F)F)c(-c2c(F)cc(F)cc2F)c1Br [Compound 72] | H (H shows the control value of more than 50%) | L (L shows the control value of 50% or less) | L (L shows the control value of 50% or less) | H (H shows the control value of more than 50%) | L (L shows the control value of 50% or less) |
| COc1ccccc1-n1cc(Cl)c(=O)c(Cl)c1-c1c(F)cc(F)cc1F [Compound 75] | L (L shows the control value of 50% or less) | H (H shows the control value of more than 50%) | L (L shows the control value of 50% or less) | H (H shows the control value of more than 50%) | H (H shows the control value of more than 50%) |
| CC(c1ccccc1)n1cc(Cl)c(=O)c(I)c1-c1c(F)cc(F)cc1F (stereo not shown) [Compound 76] | L (L shows the control value of 50% or less) | H (H shows the control value of more than 50%) | L (L shows the control value of 50% or less) | L (L shows the control value of 50% or less) | H (H shows the control value of more than 50%) |
| CC(c1ccccc1)n1cc(Br)c(=O)c(Cl)c1-c1c(F)cc(F)cc1F (stereo not shown) [Compound 77] | L (L shows the control value of 50% or less) | H (H shows the control value of more than 50%) | L (L shows the control value of 50% or less) | L (L shows the control value of 50% or less) | H (H shows the control value of more than 50%) |
| CC(c1ccccc1)n1cc(Br)c(=O)c(Br)c1-c1c(F)cc(F)cc1F (stereo not shown) [Compound 78] | L (L shows the control value of 50% or less) | H (H shows the control value of more than 50%) | H (H shows the control value of more than 50%) | L (L shows the control value of 50% or less) | H (H shows the control value of more than 50%) |
| O=c1c(Cl)cn(Cc2ccccc2Cl)c(-c2c(F)cc(F)cc2F)c1Cl [Compound 79] | L (L shows the control value of 50% or less) | L (L shows the control value of 50% or less) | L (L shows the control value of 50% or less) | H (H shows the control value of more than 50%) | L (L shows the control value of 50% or less) |
| O=c1c(Cl)cn(Cc2ccccc2Cl)c(-c2c(F)cc(F)cc2F)c1Br [Compound 80] | L (L shows the control value of 50% or less) | H (H shows the control value of more than 50%) | L (L shows the control value of 50% or less) | H (H shows the control value of more than 50%) | L (L shows the control value of 50% or less) |
| COc1ccccc1-n1cc(Br)c(=O)c(Cl)c1-c1c(F)cc(F)cc1F [Compound 81] | H (H shows the control value of more than 50%) | H (H shows the control value of more than 50%) | L (L shows the control value of 50% or less) | H (H shows the control value of more than 50%) | H (H shows the control value of more than 50%) |
| COc1cc(F)c(-c2c(Br)c(=O)c(Cl)cn2C(C)c2ccccc2)c(F)c1 (stereo not shown) [Compound 82] | L (L shows the control value of 50% or less) | H (H shows the control value of more than 50%) | H (H shows the control value of more than 50%) | H (H shows the control value of more than 50%) | H (H shows the control value of more than 50%) |
| COc1cc(F)c(-c2c(Cl)c(=O)c(Cl)cn2C(C)c2ccccc2)c(F)c1 (stereo not shown) [Compound 83] | L (L shows the control value of 50% or less) | H (H shows the control value of more than 50%) | H (H shows the control value of more than 50%) | H (H shows the control value of more than 50%) | H (H shows the control value of more than 50%) |
| COc1cc(F)c(-c2c(Br)c(=O)c(Cl)cn2CCCC(F)(F)F)c(F)c1 [Compound 84] | L (L shows the control value of 50% or less) | H (H shows the control value of more than 50%) | H (H shows the control value of more than 50%) | H (H shows the control value of more than 50%) | H (H shows the control value of more than 50%) |
| COc1cc(F)c(-c2c(Cl)c(=O)c(Cl)cn2CCCC(F)(F)F)c(F)c1 [Compound 85] | L (L shows the control value of 50% or less) | H (H shows the control value of more than 50%) | H (H shows the control value of more than 50%) | H (H shows the control value of more than 50%) | H (H shows the control value of more than 50%) |
| O=c1c(Br)cn(Cc2ccccc2Cl)c(-c2c(F)cc(F)cc2F)c1Cl [Compound 86] | L (L shows the control value of 50% or less) | L (L shows the control value of 50% or less) | L (L shows the control value of 50% or less) | H (H shows the control value of more than 50%) | L (L shows the control value of 50% or less) |
| O=c1c(Br)cn(Cc2ccccc2Cl)c(-c2c(F)cc(F)cc2F)c1Br [Compound 87] | L (L shows the control value of 50% or less) | H (H shows the control value of more than 50%) | L (L shows the control value of 50% or less) | H (H shows the control value of more than 50%) | L (L shows the control value of 50% or less) |
| COc1cc(F)c(-c2c(Br)c(=O)c(Cl)cn2Cc2ccccc2Cl)c(F)c1 [Compound 88] | L (L shows the control value of 50% or less) | H (H shows the control value of more than 50%) | H (H shows the control value of more than 50%) | H (H shows the control value of more than 50%) | H (H shows the control value of more than 50%) |
| O=c1c(Cl)cn(Cc2ccccc2Cl)c(-c2c(F)cc(F)cc2F)c1I [Compound 89] | L (L shows the control value of 50% or less) | H (H shows the control value of more than 50%) | H (H shows the control value of more than 50%) | H (H shows the control value of more than 50%) | H (H shows the control value of more than 50%) |
